This is one part of the list.
test system: HSkMC (human skeletal muscle cells); assay: cytotoxicity call (relative viability < 0.9); details: 10 µM

Row | SMILES | cytotoxicity call
1 | O=C(C1=C[C@H](c2ccc(C(F)(F)F)cc2)C[C@H](OCc2ccc(CO)cc2)O1)N1CCN(Cc2ccccc2)CC1 | inactive
2 | CC(C)NC(=O)Nc1ccc2c(c1)C(=O)N([C@H](C)CO)C[C@@H](C)[C@@H](CN(C)CC1CCCCC1)OCCCC[C@@H](C)O2 | inactive
3 | C[C@@H]1CN([C@@H](C)CO)C(=O)c2cc(Br)cnc2O[C@@H]1CN(C)Cc1ccc(C(=O)O)cc1 | inactive
4 | COCC#Cc1ccc2c(c1)O[C@@H](CN(C)Cc1ccc3c(c1)OCO3)[C@H](C)CN([C@H](C)CO)S2(=O)=O | inactive
5 | COCC#Cc1ccc2c(c1)O[C@H](CN(C)C(=O)C1CCOCC1)[C@@H](C)CN([C@H](C)CO)S2(=O)=O | inactive
6 | COCCNC(=O)C[C@H]1C[C@@H]2c3cc(NS(C)(=O)=O)ccc3O[C@@H]2[C@H](CO)O1 | inactive
7 | C[C@@H]1CCCCO[C@@H](CN(C)Cc2ccc(C(F)(F)F)cc2)[C@@H](C)CN([C@@H](C)CO)C(=O)c2cc(NS(=O)(=O)c3ccc(F)cc3)ccc2O1 | inactive
8 | Cc1ccc(S(=O)(=O)Nc2ccc3c(c2)CC(=O)N([C@H](C)CO)C[C@@H](C)[C@@H](CN(C)Cc2ccc(-c4ccccc4)cc2)O3)cc1 | active
9 | O=C(O[C@H](Cc1ccc(O)c(O)c1)C(=O)O)[C@H]1[C@H](C(=O)O[C@@H](Cc2ccc(O)c(O)c2)C(=O)O)[C@H](c2ccc(O)c(O)c2)[C@@H]1c1ccc(O)c(O)c1 | inactive
10 | Cc1ccc(-c2nc(Nc3ccccc3F)sc2C)cc1 | inactive
11 | COc1cc(OC)cc(C(=O)OCCCNCCNCCCOC(=O)c2cc(OC)cc(OC)c2)c1 | inactive
12 | Cc1nc(N)sc1-c1ccnc(Nc2ccc(N3CCOCC3)cc2)n1 | inactive
13 | O=C(C[C@@H]1C[C@@H]2c3cc(NC(=O)Cc4ccncc4)ccc3O[C@@H]2[C@@H](CO)O1)NCc1ccc2c(c1)OCO2 | inactive
14 | C[C@H]1CCCCO[C@@H](CN(C)Cc2ccc(C(=O)O)cc2)[C@@H](C)CN([C@@H](C)CO)C(=O)c2cc(NS(=O)(=O)c3ccccc3)ccc2O1 | inactive
15 | COc1ccc(S(=O)(=O)Nc2ccc3c(c2)C(=O)N([C@@H](C)CO)C[C@H](C)[C@H](CN(C)C(=O)CCC(F)(F)F)OCCCC[C@@H](C)O3)cc1 | inactive
16 | Cc1noc(C)c1NC(=O)Nc1ccc2c(c1)C(=O)N([C@@H](C)CO)C[C@@H](C)[C@H](CN(C)C(=O)Nc1ccc(F)cc1)OCCCC[C@@H](C)O2 | inactive
17 | C[C@@H]1CCCCO[C@@H](CN(C)Cc2ccncc2)[C@@H](C)CN([C@@H](C)CO)C(=O)c2cc(NC(=O)Cc3ccccc3)ccc2O1 | inactive
18 | CC(=O)C1CCC2C3CCC4=CC(=O)CCC4(C)C3CCC12C (stereo not given) | inactive
19 | NC(=O)CNC(=O)c1cccc(Cl)c1 | inactive
20 | CCN(CC)CCC/N=C1/N=C(CC(=O)/C=C/c2ccc(O)c(OC)c2)C[C@@H](c2ccc(O)c(OC)c2)S1 | inactive

Row | SMILES | cytotoxicity call
21 | O=C(C[C@@H]1CC[C@H]2[C@@H](COC[C@H](O)CN2S(=O)(=O)c2ccc(Cl)cc2)O1)NCCN1CCCCC1 | inactive
22 | C[C@@H]1CCCCO[C@H](CN(C)C(=O)NC2CCCCC2)[C@@H](C)CN([C@H](C)CO)C(=O)c2cc(NC(=O)Cc3ccccc3)ccc2O1 | inactive
23 | C[C@H]1CN([C@@H](C)CO)C(=O)c2cc(C#Cc3cccc(F)c3)cnc2O[C@H]1CN(C)C(=O)C1CCOCC1 | inactive
24 | C[C@@H]1CN([C@@H](C)CO)C(=O)c2cc(NC(=O)Nc3ccccc3)ccc2O[C@@H](C)CCCCO[C@@H]1CN(C)C(=O)CCC(F)(F)F | inactive
25 | Cc1ccc(S(=O)(=O)Nc2ccc3c(c2)C(=O)N([C@H](C)CO)C[C@@H](C)[C@H](CN(C)C(=O)Nc2ccc(C(F)(F)F)cc2)O3)cc1 | inactive
26 | C[C@H]1CN([C@@H](C)CO)C(=O)Cc2cc(NC(=O)Nc3cccc4ccccc34)ccc2O[C@H]1CN(C)Cc1ccc(C(=O)Nc2ccccc2N)cc1 | inactive
27 | COCCOC(=O)N1C(=O)[C@@]2(c3cc(C#Cc4ccc(OC)cc4)ccc31)[C@H](C(=O)N1CCc3cc(OC)c(OC)cc3C1)[C@H]1C(=O)O[C@H](c3ccccc3)[C@H](c3ccccc3)N1[C@@H]2c1ccc(O)cc1 | inactive
28 | C[C@H](CO)N1C[C@H](C)[C@@H](CN(C)C(=O)NC2CCCCC2)Oc2c(NC(=O)C3CCOCC3)cccc2C1=O | inactive
29 | O=C1NCCN1c1cccnc1 | inactive
30 | C[C@H]1CCCCO[C@H](CN(C)Cc2ccc3c(c2)OCO3)[C@@H](C)CN([C@@H](C)CO)C(=O)c2cc(NC(=O)C3CCCCC3)ccc2O1 | inactive
31 | C[C@H](CO)N1C[C@H](C)[C@@H](CN(C)S(C)(=O)=O)Oc2ccc(NS(=O)(=O)c3ccc(Cl)cc3)cc2CC1=O | inactive
32 | C[C@H]1CN([C@@H](C)CO)S(=O)(=O)c2ccc(C#CC(C)(C)O)cc2O[C@H]1CN(C)C(=O)C1CCCCC1 | inactive
33 | CS(=O)(=O)NC[C@@H]1OC[C@@H]2CCN(C(=O)c3ccnnc3)C[C@@H]21 | inactive
34 | COc1ccc(NC(=O)Nc2ccc3c(c2)[C@@H]2C[C@H](CC(=O)NCc4ccc(-c5ccccc5)cc4)O[C@@H](CO)[C@@H]2O3)cc1 | inactive
35 | CC(C)NC(=O)N(C)C[C@@H]1OCCCC[C@H](C)Oc2ccc(NS(C)(=O)=O)cc2C(=O)N([C@@H](C)CO)C[C@H]1C | inactive
36 | C[C@@H]1CCCCO[C@@H](CN(C)C(=O)Nc2ccccc2)[C@@H](C)CN([C@@H](C)CO)C(=O)c2cc(NS(=O)(=O)c3ccc(F)cc3)ccc2O1 | inactive
37 | COc1ccc(-c2ccccn2)cc1 | inactive
38 | CC(=O)N1CCc2c(sc(NC(=O)CN3C(=O)CCC3=O)c2C(N)=O)C1 | inactive
39 | C[C@H](CO)N1C[C@H](C)[C@@H](CN(C)C(=O)Nc2cccc3ccccc23)OCCCC[C@H](C)Oc2ccc(NS(=O)(=O)c3ccc(Cl)cc3)cc2C1=O | inactive
40 | C[C@@H]1CN([C@@H](C)CO)C(=O)c2cccc(NC(=O)C3CCCCC3)c2O[C@@H]1CN(C)Cc1ccc(C(=O)Nc2ccccc2N)cc1 | inactive

Source: the antibiotic and cytotoxicity screens of Wong et al. (2023)
